From the supplement of paper PMC7826260
The other results are listed elsewhere or left out. Cleavage of a single-stranded DNA pool by Rep nickase domains was read by sequencing (3 µM enzyme, 1 h, 37 °C); shown is the middle of each 90-letter strand. Values are log2 of uncut reads against the no-enzyme pool; the lower, the more was cut; hits are not called. Counts are relative to all reads; values above 0 arise when much of the pool is cut.

Each sequence was assayed on T1, Rep nickase domain of tomato golden mosaic virus (assay: uncleaved DNA left, log2 of reads against the no-enzyme library (log2 ratio); higher = less cleavage (more negative = more Rep cleavage of the k-mer); sequences stand for … in CTCGTCCG…ACCGGAGA).
T1 sequence (residues 1-124, tag not shown): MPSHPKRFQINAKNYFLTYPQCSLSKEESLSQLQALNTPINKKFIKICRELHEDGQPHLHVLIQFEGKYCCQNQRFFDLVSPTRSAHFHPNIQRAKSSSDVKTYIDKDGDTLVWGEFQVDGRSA
Description: (§1)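 A pool of 90-nt single-stranded DNAs with seven random bases just before the constant AC of the nick site (name = the seven bases) was cut by 3 µM recombinant His6-SUMO-tagged Rep nickase domain (300 nM DNA, 50 mM HEPES pH 8.0, 50 mM NaCl, 1 mM MnCl2, 1 h, 37 °C, three replicates). Uncut DNA was amplified and sequenced.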

Row | Sequence | uncleaved DNA left (log2)
1 | AGGAGAG | 0.0899
2 | GGCAGTG | 0.0311
3 | AGCTTCA | 0.0883
4 | GGCACTT | -0.0714
5 | ATCCGCA | -0.186
6 | ATTCTGT | -0.145
7 | ACGGACC | 0.202
8 | ACCCTTG | 0.0599
9 | GTAAGAT | 0.105
10 | ACGGGAG | 0.113
11 | AAGCGTT | -0.0711
12 | ATTTACT | -0.258
13 | ATTTGTG | 0.0359
14 | AATGGAA | 0.0373
15 | TATCTTC | -0.161
16 | ATCCCCT | -0.0972
17 | GCGTAAG | 0.145
18 | GCTATTG | -0.000406
19 | GATGAGA | 0.126
20 | ACGTCCA | -0.0465

Row | Sequence | uncleaved DNA left (log2)
21 | CGTGAAT | 0.0851
22 | GACTGGT | 0.0991
23 | CTCTATC | -0.237
24 | TAGATCA | 0.0183
25 | CGGCCCA | -0.271
26 | GGATGTT | 0.0398
27 | AGTATGC | 0.0476
28 | GTAAATG | 0.0629
29 | GTCGGTC | 0.167
30 | CCTCCCG | -0.0158
31 | TTGTTTC | -0.268
32 | CGATTTC | -0.0151
33 | TCCTGCT | 0.0805
34 | TTTTGGA | 0.0388
35 | GGCCACG | 0.074
36 | GTCACGA | 0.102
37 | CAGTGGG | -0.0368
38 | ACAGAGA | 0.142
39 | ATATTCG | 0.0188
40 | CTCCGGC | 0.0363

What follows are sequences tested on T2, Rep nickase domain of tomato yellow leaf curl virus in the same assay as above.
T2 sequence (residues 1-136, tag not shown): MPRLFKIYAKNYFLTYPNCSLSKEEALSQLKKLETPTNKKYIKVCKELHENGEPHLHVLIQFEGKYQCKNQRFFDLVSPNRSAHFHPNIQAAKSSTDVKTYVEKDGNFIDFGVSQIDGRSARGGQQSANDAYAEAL
Description: as §1

Row | Sequence | uncleaved DNA left (log2)
41 | AGGAGAG | 0.0723
42 | GGCAGTG | 0.008
43 | AGCTTCA | 0.0738
44 | GGCACTT | 0.0826
45 | ATCCGCA | -0.127
46 | ATTCTGT | -0.133
47 | ACGGACC | 0.00336
48 | ACCCTTG | -0.00481
49 | GTAAGAT | 0.00803
50 | ACGGGAG | 0.0626
51 | AAGCGTT | -0.23
52 | ATTTACT | -0.063
53 | ATTTGTG | 0.0661
54 | AATGGAA | -0.152
55 | TATCTTC | 0.0662
56 | ATCCCCT | -0.039
57 | GCGTAAG | 0.0186
58 | GCTATTG | -0.0546
59 | GATGAGA | 0.0916
60 | ACGTCCA | -0.157

Row | Sequence | uncleaved DNA left (log2)
61 | CGTGAAT | 0.059
62 | GACTGGT | 0.0611
63 | CTCTATC | -0.0585
64 | TAGATCA | 0.103
65 | CGGCCCA | -0.0452
66 | GGATGTT | -0.0761
67 | AGTATGC | 0.0893
68 | GTAAATG | 0.102
69 | GTCGGTC | -0.0476
70 | CCTCCCG | -0.13
71 | TTGTTTC | -0.0507
72 | CGATTTC | 0.0878
73 | TCCTGCT | -0.0318
74 | TTTTGGA | -0.0356
75 | GGCCACG | 0.0851
76 | GTCACGA | 0.00583
77 | CAGTGGG | 0.218
78 | ACAGAGA | -0.0317
79 | ATATTCG | 0.149
80 | CTCCGGC | -0.0716

These sequences were tested on T3, Rep nickase domain of wheat dwarf virus in the same assay as above.
T3 sequence (residues 1-137, tag not shown): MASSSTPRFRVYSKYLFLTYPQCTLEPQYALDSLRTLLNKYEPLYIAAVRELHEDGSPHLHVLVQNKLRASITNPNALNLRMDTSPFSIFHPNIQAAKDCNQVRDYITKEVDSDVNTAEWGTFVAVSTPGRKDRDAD
Description: as §1

Row | Sequence | uncleaved DNA left (log2)
81 | AGGAGAG | 0.0549
82 | GGCAGTG | -0.0344
83 | AGCTTCA | 0.0941
84 | GGCACTT | 0.11
85 | ATCCGCA | -0.187
86 | ATTCTGT | -0.0973
87 | ACGGACC | 0.0466
88 | ACCCTTG | 0.0673
89 | GTAAGAT | 0.00901
90 | ACGGGAG | -0.135
91 | AAGCGTT | -0.0841
92 | ATTTACT | -0.329
93 | ATTTGTG | -0.104
94 | AATGGAA | 0.0148
95 | TATCTTC | -0.0185
96 | ATCCCCT | 0.0275
97 | GCGTAAG | -0.0972
98 | GCTATTG | -0.139
99 | GATGAGA | 0.112
100 | ACGTCCA | -0.176

Row | Sequence | uncleaved DNA left (log2)
101 | CGTGAAT | 0.0448
102 | GACTGGT | 0.0295
103 | CTCTATC | -0.0838
104 | TAGATCA | 0.176
105 | CGGCCCA | -0.0257
106 | GGATGTT | 0.104
107 | AGTATGC | 0.0408
108 | GTAAATG | 0.153
109 | GTCGGTC | -0.0533
110 | CCTCCCG | -0.111
111 | TTGTTTC | -0.27
112 | CGATTTC | -0.011
113 | TCCTGCT | -0.185
114 | TTTTGGA | -0.0971
115 | GGCCACG | 0.0692
116 | GTCACGA | 0.00783
117 | CAGTGGG | -0.0983
118 | ACAGAGA | -0.11
119 | ATATTCG | -0.136
120 | CTCCGGC | -0.0419
